We go through ten compounds from patent publication US9133171B2 (priority 2011, dated 2015).

Like-named read-outs stand apart in the source and are kept apart here.

Experiment [1] concerns NCI-H460, human non-small cell lung carcinoma cells. The experiment in a line: cells. Particulars: NCI-H460, read-out: Inhibition of H460 cell proliferation.
For experiment [2], the system named is Caco-2, human colorectal carcinoma cells. In words: cells. Particulars: Caco-2, read-out: Inhibition of Caco-2 cell proliferation.
The test system of experiment [3] is DU 145, hormone-independent human prostate carcinoma cells. The experiment in a line: cells. The conditions noted are these: DU-145, read-out: Inhibition of DU145 cell proliferation.
In experiment [4] the test system is HeLa-MaTu-ADR, multidrug-resistant human cervical carcinoma cells. The experiment in a line: cells. Particulars: read-out: Inhibition of HeLa-MaTu-ADR cell proliferation.
In experiment [5] the test system is B16F10, mouse melanoma cells. The experiment in a line: cells. The conditions noted are these: B16-F10, read-out: Inhibition of B16F10 cell proliferation.
Experiment [6] relates to A2780, human ovarian carcinoma cells. The experiment in a line: cells. The conditions noted are these: A2780, read-out: Inhibition of A2780 cell proliferation.
The test system of experiment [7] is HeLa, human cervical tumour cells. In words: cells. The conditions noted are these: read-out: Inhibition of HeLa cell proliferation.
Experiment [8] concerns A2780, human ovarian carcinoma cells. Particulars: read-out: Inhibition of A2780 cell proliferation.
In experiment [9] the test system is HeLa, human cervical tumour cells. Particulars: read-out: Inhibition of HeLa cell proliferation.
The test system of experiment [10] is Caco-2, human colorectal carcinoma cells. Particulars: read-out: Inhibition of Caco-2 cell proliferation.
The test system of experiment [11] is B16F10, mouse melanoma cells. The conditions noted are these: read-out: Inhibition of B16F10 cell proliferation.
For experiment [12], the system named is HeLa-MaTu-ADR, multidrug-resistant human cervical carcinoma cells. Particulars: read-out: Inhibition of HeLa-MaTu-ADR cell proliferation.
Experiment [13] relates to NCI-H460, human non-small cell lung carcinoma cells. Particulars: read-out: Inhibition of H460 cell proliferation.

Consider `COc1cc(F)ccc1-c1nc(Nc2cc(F)c(F)c(CS(C)(=O)=NC#N)c2)ncc1F` (racemic) [Example 24, (rac)-[(2,3-Difluoro-5-{[5-fluoro-4-(4-fluoro-2-methoxyphenyl)pyrimidin-2-yl]amino}benzyl)-(methyl)oxido-λ^6-sulfanylidene]cyanamide], for which the IC50 in experiment [1] is 0.099 µM; in experiment [2] it was 0.094 µM; in experiment [3] it was 0.11 µM; in experiment [4] it was 0.081 µM; in experiment [5] it was 0.14 µM; in experiment [6] it was 0.048 µM. Besides, in experiment [7], the IC50 came to 0.104 µM.

In the case of `COc1cc(F)ccc1-c1nc(Nc2cc(Br)cc(CS(C)(=N)=O)c2)ncc1F` (racemic) [Example 29, (rac)-N-{3-Bromo-5-[(S-methylsulfonimidoyl)methyl]phenyl}-5-fluoro-4-(4-fluoro-2-methoxy-phenyl)pyrimidin-2-amine], the IC50 in [1] was 0.13 µM; in experiment [3], 0.1 µM; in [5] it was 0.13 µM; in [6], 0.047 µM; in [7], 0.107 µM.

For `COc1cc(F)ccc1-c1nc(Nc2cc(CS(C)(=N)=O)cc(C(F)(F)F)c2)ncc1F` (racemic) [Example 41, (rac)-5-Fluoro-4-(4-fluoro-2-methoxyphenyl)-N-[3-[(S-methylsulfonimidoyl)methyl]-5-(trifluoro-methyl)phenyl]pyrimidin-2-amine], the IC50 came out at 0.12 µM in experiment [1]; 0.15 µM in [2]; 0.15 µM in experiment [3]; 0.11 µM in experiment [4]; 0.22 µM in [5]; 0.042 µM in experiment [6]. For the same compound, the IC50 in experiment [7] was determined as 0.102 µM.

As to `CCS(=O)(Cc1cc(F)cc(Nc2ncc(F)c(-c3ccc(F)cc3OC)n2)c1)=NC#N` (racemic) [Example 42, (rac)-[Ethyl(3-fluoro-5-{[5-fluoro-4-(4-fluoro-2-methoxyphenyl)pyrimidin-2-yl]amino}benzyl)-oxido-λ^6-sulfanylidene]cyanamide], the IC50 in [1] is 0.034 µM; in [2], 0.03 µM; in experiment [3] it was 0.061 µM; in experiment [4] it was 0.034 µM; in [5] it was 0.033 µM; in [6], 0.041 µM. Further, the IC50 in [7] came to 0.126 µM.

In the case of `COc1cc(F)ccc1-c1nc(Nc2cc(CS(C)(=O)=NC#N)cc(C(F)(F)C(F)(F)F)c2)ncc1F` (racemic) [Example 46, (rac)-{[3-{[5-Fluoro-4-(4-fluoro-2-methoxyphenyl)pyrimidin-2-yl]amino}-5-(pentafluoroethyl)-benzyl](methyl)oxido-λ^6-sulfanylidene}cyanamide], in experiment [7], the IC50 is 0.899 µM.

In the case of `CS(=N)(=O)Cc1cccc(Nc2ncc(F)c(-c3ccc(F)cc3OCc3ccc(F)cc3)n2)c1` (racemic) [Example 55, (rac)-5-Fluoro-4-[4-fluoro-2-[(4-fluorobenzyl)oxy]phenyl]-N-[3-{(S-methylsulfonimidoyl)methyl]-phenyl}pyrimidin-2-amine], the IC50 in experiment [7] stood at 0.796 µM.

`COc1cc(F)ccc1-c1nc(Nc2cc(CS(C)(=O)=NC#N)cc(S(F)(F)(F)(F)F)c2)ncc1F` (racemic) [Example 60, (rac)-{[3-{[5-Fluoro-4-(4-fluoro-2-methoxyphenyl)pyrimidin-2-yl]amino}-5-(pentafluoro-λ^6-sulfanyl)benzyl](methyl)oxido-λ6-sulfanylidene}cyanamide]: the IC50 was found to be 0.066 µM in experiment [1]; 0.091 µM in experiment [2]; 0.092 µM in experiment [3]; 0.068 µM in [4]; 0.12 µM in experiment [5]; 0.038 µM in experiment [6]. In addition, in experiment [7], the IC50 amounted to 0.096 µM.

`COc1cc(F)ccc1-c1nc(Nc2cc(CS(C)(=N)=O)cc(S(F)(F)(F)(F)F)c2)ncc1F` (racemic) [Example 61, (rac)-5-Fluoro-4-(4-fluoro-2-methoxyphenyl)-N-{3-[(S-methylsulfonimidoyl)methyl]-5-(pentafluoro-λ^6-sulfanyl)phenyl}pyrimidin-2-amine]: the IC50 was found to be 0.041 µM in experiment [1]; 0.057 µM in experiment [2]; 0.11 µM in [3]; 0.037 µM in [4]; 0.13 µM in [5]; 0.083 µM in experiment [6]. For the same compound, the IC50 in [7] was 0.441 µM.

Take `COc1cc(F)ccc1-c1nc(Nc2cc(Br)cc(CS(C)(=N)=O)c2)ncc1F` (single isomer, unassigned) [Example 30, N-{3-bromo-5-[(S-methylsulfonimidoyl)methyl]phenyl}-5-fluoro-4-(4-fluoro-2-methoxyphenyl)-pyrimidin-2-amine]: the IC50 worked out at 0.098 µM in experiment [1]; 0.13 µM in experiment [3]; 0.15 µM in experiment [5]; 0.062 µM in [8]; 0.145 µM in experiment [7].

With `COc1cc(F)ccc1-c1nc(Nc2cc(Br)cc(CS(C)(=N)=O)c2)ncc1F` (single isomer, unassigned) [Example 31, N-{3-bromo-5-[(S-methylsulfonimidoyl)methyl]phenyl}-5-fluoro-4-(4-fluoro-2-methoxyphenyl)-pyrimidin-2-amine], the IC50 in experiment [9] was found to be 0.169 µM; in experiment [10], 0.098 µM; in [11], 0.13 µM; in experiment [12] it was 0.059 µM; in experiment [13], 0.09 µM; in experiment [8], 1 µM.
